About 200 (0.44%) of roughly 45,000 compounds were called active. Not shown: some 7% with an inconclusive outcome. Calls follow the shape of the dose curve; as a rule, active = well fitted activation curve with a large enough effect; inconclusive = small, poorly fitted or top-dose-only effect; inactive = no such curve, though single readings can be large or run the other way. The list shows a part of the results.
Experiment: qHTS of TDP-43 Inhibitors: NCGC Sytravon Library Screen; also: 0% is about no effect; nearly all actives have a fitted effect of over 55% in size
Conditions: yeast TDP-43 toxicity rescue, BacTiter-Glo growth, 24 h; series mostly up to 46.1 µM; growth rescue (activation): at the top concentration
Summary of the method: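 TDP-43-expressing yeast, pregrown in raffinose, seeded at OD600 0.02 in galactose medium with compound for 24 hr at 30 deg C. Growth read by BacTiter-Glo luminescence, so rescue of toxicity appears as activation.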

Compound | growth rescue (activation)
O=C(CSc1nc2c(c(=O)n1-c1ccc(Cl)cc1)SCC2)NCC1CCCO1 (stereo not given) | inactive: 2.45%
COCCCN1C(=O)C(=O)/C(=C(/O)c2ccc(OC)cc2)C1c1cccc(OC)c1 (stereo not given) | inactive: 29.6%
CC(=O)NC(C)(c1ccccc1)c1nc(-c2cncnc2)cs1 (stereo not given) | inactive: 10.4%
CCOc1ccc(C(=O)NCc2ccc3c(c2)OCO3)cc1 | inactive: 30%
CCOc1ccc(N(CC(=O)NCC2CCCO2)C(=O)CCC(=O)Nc2nccs2)cc1 (stereo not given) | inactive: 0.31%
Cc1ccc(S(=O)(=O)NCC(=O)Nc2ccc3c(c2)OCCO3)cc1 | inactive: 0.789%
CCc1ccc(NC(=S)N(CCCN2CCOCC2)Cc2ccco2)cc1 | inactive: 2.86%
Cc1cccc(N2CCN(C(=O)c3ccc4nccnc4c3)CC2C)c1 (stereo not given) | inactive: 21.6%
O=C(CCS(=O)(=O)c1ccc(Br)cc1)Nc1cc(F)ccc1F | inactive: 18.7%
CCC(C)NC(=O)CSc1n[nH]c(=O)n1CCc1ccccc1 (stereo not given) | inactive: 9.74%
Cc1ccc(S(=O)(=O)Nc2cccc3c2CCCC3)cc1 | inactive: 5.58%
CCc1nc2c(OCc3ccccc3C)cccn2c1N(C)C(=O)CC(C)C | inactive: 0.687%
CN(C)CC(=O)N1c2ccccc2Sc2ccc(Cl)cc21 | inactive: 0.204%
CC(=O)Nc1ccc(NC(=O)c2cc(-c3ccc(F)cc3C)n[nH]2)cc1 | inactive: -1.95%
CCC1(c2ccc(Cl)cc2)NC(=O)N(CC(=O)NCc2ccc(F)cc2)C1=O (stereo not given) | inactive: 7.53%
COc1ccc(OC)c(C=NNC(=O)c2ccc(NS(=O)(=O)c3cccs3)cc2)c1 | inactive: 1.26%
Cn1nnnc1SCC(=O)N(C1CCCCC1)C1CCCCC1 | inactive: 2.96%
COc1ccccc1N(CC(=O)NC1CCCC1)C(=O)c1oc(C(C)(C)C)cc1C | inactive: 26.6%
COc1cc(-c2nc3sccn3c2Nc2c(C)cccc2C)ccc1O | inactive: 2.72%
C/C(=N\NC(=O)Cc1cccn1C)c1cccs1 | inactive: 20.9%
Cc1nn2c(Nc3ccc(F)cc3)c3c(nc2c1-c1ccccc1)CCC3 | inactive: 8.18%
CC(=O)CC1(OC(C)=O)C(=O)N(C)c2ccccc21 (stereo not given) | inactive: -4.53%
CC(c1nc2scc(-c3ccccc3)c2c(=O)[nH]1)N1CCN(CC(=O)NC2CC2)CC1 (stereo not given) | inactive: -15.7%
O=C(NCc1ccc(F)cc1)C1CCN(S(=O)(=O)N2CCCC2)CC1 | inactive: -0.919%
COc1ccc(NC(=O)c2ccc(OCc3c(C)noc3C)c(OC)c2)cn1 | inactive: 2.05%
O=C(CN1CCN(c2ccc(O)cc2)CC1)Nc1cc(S(=O)(=O)N2CCOCC2)ccc1Cl | inactive: 8.99%
CCCCn1c(=S)[nH]c2ncccc2c1=O | inactive: 11.5%
CCOC(=O)c1c(NC(=O)CN2C(=O)NC3(CCCCC3)C2=O)sc(C)c1-c1ccc(C)cc1 | inactive: -0.841%
CCN(CC(=O)NCc1ccc(F)cc1)CC(=O)Nc1ccc(Br)cc1F | inactive: -17.2%
Cc1ccccc1N1CC(C(=O)N2CC(C)OC(C)C2)CC1=O (stereo not given) | inactive: 10.9%
